Measurements taken from article PMC4242493.
This is one part of the list. The list includes weakly bound sequences.

target: MaxL homodimer (UniProt P61244); assay: universal protein-binding microarray (PBM); settings: PBS-based mixture, 10 nM His-tagged protein dimer, 2% milk, 200 ng/uL BSA, 50 ng/uL salmon testes DNA, 0.02% TX-100; detection with Alexa 488 anti-His …; high values mean tight binding; most listed sequences are background and not binding sites; double strand, one strand shown
UniProt P61244, sequence (P61244 whole entry): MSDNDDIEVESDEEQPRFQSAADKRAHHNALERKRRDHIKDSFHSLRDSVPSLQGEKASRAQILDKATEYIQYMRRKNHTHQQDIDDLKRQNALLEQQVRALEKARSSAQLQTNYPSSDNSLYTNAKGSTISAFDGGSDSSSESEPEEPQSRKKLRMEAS

Sequence | binding signal (normalized occupancy)
TCGATAGA | 0.0792
CAGGCGCC | 0.0679
ACATCTAT | 0.0816
CCGTGTAG | 0.0808
CACTCGTC | 0.0748
TAGTCTGA | 0.0685
ATGCAGCA | 0.0843
CTCGTACC | 0.0723
CACTCTAC | 0.0797
TCACGACA | 0.0783
ACTGAAGT | 0.0686
CGGTTCAC | 0.0724
CGTACTGC | 0.0763
ATCTCGTC | 0.0708
AACTCCCG | 0.0766
AATCGCAA | 0.0674
TACAAATA | 0.0817
GCAATGCC | 0.0753
AAGGAGTA | 0.0736
GTGTTTCA | 0.0829
CGCAATCA | 0.0744
GTATTACA | 0.0849
CAAACAGG | 0.0747
AAGAAGAC | 0.08

Sequence | binding signal (normalized occupancy)
AATGGGGC | 0.0733
CTGCGCAC | 0.0795
CACGACGA | 0.0811
AAAACGCC | 0.069
CAGGACCG | 0.0711
GCACGCTA | 0.101
CGGCCGGA | 0.0724
AATCCTCC | 0.0749
AGAGGAAA | 0.0733
GCAATGAA | 0.0729
CAGGCACG | 0.076
ATCTAATG | 0.082
ACCTTGTC | 0.0761
CACGCGGG | 0.145
ACTAGAAC | 0.0772
GCAGCCTA | 0.0708
TGTAGAAA | 0.0794
CAGAACTG | 0.0637
CTTCTCTC | 0.0719
CCATACAC | 0.0849
AGTGCACA | 0.0838
CAATACGG | 0.0728
GTGCTGGA | 0.0813
CCACCTGG | 0.105

Sequence | binding signal (normalized occupancy)
CTTACCGC | 0.0744
CGAAGGCA | 0.07
CCCAGGCA | 0.0746
CTGTGGTA | 0.0785
GAATTAAC | 0.075
CAGGTGCA | 0.0844
CCTGTAAG | 0.0745
TAACTGCA | 0.0726
CCGCCACG | 0.0847
ACGTATCG | 0.0801
GGATGCAA | 0.0807
CGTGTGCA | 0.0981
ATTGCTTG | 0.0731
CCCCGTAC | 0.0757
AGTACGCG | 0.0818
ATGTCCAG | 0.0759
AAGGTATA | 0.0782
CAGATCAG | 0.0811
CAATATTG | 0.0704
ATTGCGGA | 0.0753
CACCTTGG | 0.0779
GTCTGTGA | 0.0803
AAGGGGGG | 0.0707
ATTAATTC | 0.0771

Sequence | binding signal (normalized occupancy)
CTTTCGGC | 0.0737
CGCATGAC | 0.105
TCGGCAAA | 0.0705
GGTCCGGA | 0.0702
ATTTTACG | 0.0801
AGGCACTC | 0.0717
GCGGACGC | 0.0729
CCACGGTC | 0.0736
AGTATGAA | 0.0778
GGGCTCGA | 0.0739
CACCCTAG | 0.0781
TACGATGA | 0.0751
CGGCCAGC | 0.0709
CAATGGGG | 0.0767
ATTCGGGG | 0.0749
CCCAAGAC | 0.0715
GGTTTCCA | 0.073
CGACCGGC | 0.0683
AACGCTCG | 0.0758
GAATTCAA | 0.0719
TAGCTACA | 0.0754
AGTTGTAA | 0.0725
